Assay results: article PMC4336329 (PLoS ONE, 2015)
The campaign covered roughly 310,000 compounds. About 2,200 (0.71%) showed an effect of 50% or more. Effects have a minus sign here. Some of the results follow.

Target: human ether-à-go-go-related gene (hERG) potassium channel (human, UniProt Q12809)
Test: primary screen, population patch clamp on CHO cells stably expressing hERG

human ether-à-go-go-related gene (hERG) potassium channel, sequence (Q12809 whole entry, looked up): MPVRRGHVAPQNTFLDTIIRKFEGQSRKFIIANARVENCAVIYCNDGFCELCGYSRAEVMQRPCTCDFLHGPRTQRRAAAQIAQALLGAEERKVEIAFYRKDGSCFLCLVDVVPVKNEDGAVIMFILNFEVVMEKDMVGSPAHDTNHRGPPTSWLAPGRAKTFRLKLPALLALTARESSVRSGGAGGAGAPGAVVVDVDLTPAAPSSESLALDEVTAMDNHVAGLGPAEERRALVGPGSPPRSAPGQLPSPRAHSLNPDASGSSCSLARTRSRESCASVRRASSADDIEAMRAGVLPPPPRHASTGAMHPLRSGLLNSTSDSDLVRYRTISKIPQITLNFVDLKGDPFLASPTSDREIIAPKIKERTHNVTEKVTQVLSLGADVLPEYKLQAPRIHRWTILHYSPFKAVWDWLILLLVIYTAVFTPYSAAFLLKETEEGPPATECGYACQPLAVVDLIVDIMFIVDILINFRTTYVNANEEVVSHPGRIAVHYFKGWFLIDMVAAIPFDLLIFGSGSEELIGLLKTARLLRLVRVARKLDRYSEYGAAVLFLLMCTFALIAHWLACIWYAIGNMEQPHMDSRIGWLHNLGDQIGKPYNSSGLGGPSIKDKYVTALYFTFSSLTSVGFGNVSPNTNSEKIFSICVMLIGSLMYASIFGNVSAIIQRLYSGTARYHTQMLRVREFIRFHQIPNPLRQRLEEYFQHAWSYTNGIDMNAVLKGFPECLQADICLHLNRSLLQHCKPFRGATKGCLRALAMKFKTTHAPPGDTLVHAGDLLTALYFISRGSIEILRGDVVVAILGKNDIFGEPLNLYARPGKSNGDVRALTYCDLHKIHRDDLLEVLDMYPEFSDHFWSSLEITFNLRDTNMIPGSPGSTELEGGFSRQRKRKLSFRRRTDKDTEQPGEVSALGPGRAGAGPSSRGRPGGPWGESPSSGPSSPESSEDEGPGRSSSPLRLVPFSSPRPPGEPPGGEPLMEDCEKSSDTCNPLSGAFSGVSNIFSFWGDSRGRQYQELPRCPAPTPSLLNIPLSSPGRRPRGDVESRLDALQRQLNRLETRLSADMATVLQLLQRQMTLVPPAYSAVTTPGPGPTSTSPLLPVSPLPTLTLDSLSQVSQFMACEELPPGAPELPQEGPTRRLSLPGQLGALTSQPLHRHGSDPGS

Structure (SMILES)	hERG current change (%, negative = inhibition) at 1uM [%]
COc1ccc([N+](=O)[O-])cc1N(CC(=O)NC1CCCCC1)S(C)(=O)=O	11.9
Cc1cccc(NC(=O)C2CCN(S(=O)(=O)c3c(C)noc3/C=C/c3ccco3)CC2)n1	6.22
COc1ccc(CNC(=O)c2cnc(C)cn2)cc1	1.9
O=c1[nH]c2ccccc2nc1/C=C(\O)c1cccs1	15.6
COc1ccc(-c2cc(-c3ccc(F)cc3)nc(N3CCN(C)CC3)n2)cc1	-1.76
OCCC1CN(Cc2cccn2-c2nccs2)CCN1Cc1ccc(F)c(F)c1 (stereo not drawn)	-85
CC(CCc1ccc(O)cc1)N1CCC(Oc2ccc(C(=O)N3CCCC3)cc2)CC1 (stereo not drawn)	-2.08
O=C(CN1C(=O)/C(=C/c2cccc(Br)c2)SC1=S)N1CCCC1	12.9
COC(=O)C1=C(C)NC2=C(C(=O)CCC2)C1c1cn(Cc2ccc(Br)cc2)nc1-c1ccccc1 (stereo not drawn)	6.28
COc1cc([C@H]2[C@@H]3CCCC[C@]3(O)CCN2Cc2ccccc2F)ccc1O	-4.34
CCC(=O)NNC(=O)c1cc(COc2cc(Cl)cc(Cl)c2)on1	17
COc1cc(NS(=O)(=O)c2ccc(F)cc2)c(OC)cc1NC(C)=O	10.1
COc1ccc(-c2noc(CCCC(=O)O)n2)cc1	0.0739
O=S(=O)(c1ccc(Br)cc1)c1cnc2ccccc2n1	13.3
Nc1nc(O)c(N=Nc2ccc(S(N)(=O)=O)cc2)c(=O)[nH]1	13.9
CCCCC(=O)Nc1ccc(C(=O)NCCc2ccc(S(N)(=O)=O)cc2)cc1	14.4
COc1cccc(CC2(CO)CCCN(Cc3ccccc3-c3ccco3)C2)c1 (stereo not drawn)	-55.6
CCC(=O)OCC(=O)N=c1sccn1Cc1ccccc1Cl	2.94
O=C(NN1CCOCC1)c1ccc(Cl)c([N+](=O)[O-])c1	10.2
COc1cc(OC)cc(C(=O)Nc2sc3c(c2C(N)=O)CCC3)c1	20.3
O=C(NC1CCCCC1)N1CCc2ccccc21	-5.2
CCc1ccccc1NS(=O)(=O)c1ccc2c(c1)NC(=O)CC(=O)N2	10.6
O=C(Nc1ccccc1N1CCCCC1)c1cccc(F)c1	13.2
COc1ccccc1CNC(=O)c1ccc(CNc2c(N3CCCC3)c(=O)c2=O)cc1	11.1
